No constants are given. Whether binding was seen depends on the method and setting. Binding seen in cells or lysates may run through a third protein. Some results given as binding are weak or reduced against the parent protein; the word gives no strength.
Tests used:
[1] = target: GST-HIP-55AA (S269A/T291A-mutated HIP-55) (human) (UniProt Q9UJU6); experiment: pull-down; GST pull-down from lysates of transfected HEK293A cells; Glutathione-Sepharose 4B, 4 °C 4 h, three washes with lysis buffer (1% NP-40, 150 mM NaCl, 100 mM Hepes); immunoblotting
GST-HIP-55 (human) = GST-HIP-55 (human) (UniProt Q9UJU6); experiment: as above
Flag-MAP4K1 = Flag-MAP4K1 (UniProt Q92918); experiment: co-IP; Flag pull-down: lysates of transfected cells on anti-Flag M2 affinity gel, 4 °C overnight, three washes with lysis buffer; cells stimulated with EGF 100 ng/ml for 10 min

Sequences of proteins named here, by UniProt entry; tags and fusion partners are left off. A change or cut given only in a name is not applied to a line headed by its entry.
UniProt Q9UJU6: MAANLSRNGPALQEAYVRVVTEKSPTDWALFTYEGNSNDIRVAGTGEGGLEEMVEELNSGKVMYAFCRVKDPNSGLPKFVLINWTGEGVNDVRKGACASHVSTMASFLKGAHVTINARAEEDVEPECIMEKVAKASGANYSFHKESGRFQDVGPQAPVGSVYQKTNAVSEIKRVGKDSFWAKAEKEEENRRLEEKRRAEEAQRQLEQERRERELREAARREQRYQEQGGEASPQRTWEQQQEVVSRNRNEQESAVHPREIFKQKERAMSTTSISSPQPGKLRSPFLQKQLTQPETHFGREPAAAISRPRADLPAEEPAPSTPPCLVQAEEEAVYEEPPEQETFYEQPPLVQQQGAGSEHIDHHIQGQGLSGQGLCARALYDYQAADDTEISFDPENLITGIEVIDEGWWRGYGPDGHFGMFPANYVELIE
UniProt Q92918: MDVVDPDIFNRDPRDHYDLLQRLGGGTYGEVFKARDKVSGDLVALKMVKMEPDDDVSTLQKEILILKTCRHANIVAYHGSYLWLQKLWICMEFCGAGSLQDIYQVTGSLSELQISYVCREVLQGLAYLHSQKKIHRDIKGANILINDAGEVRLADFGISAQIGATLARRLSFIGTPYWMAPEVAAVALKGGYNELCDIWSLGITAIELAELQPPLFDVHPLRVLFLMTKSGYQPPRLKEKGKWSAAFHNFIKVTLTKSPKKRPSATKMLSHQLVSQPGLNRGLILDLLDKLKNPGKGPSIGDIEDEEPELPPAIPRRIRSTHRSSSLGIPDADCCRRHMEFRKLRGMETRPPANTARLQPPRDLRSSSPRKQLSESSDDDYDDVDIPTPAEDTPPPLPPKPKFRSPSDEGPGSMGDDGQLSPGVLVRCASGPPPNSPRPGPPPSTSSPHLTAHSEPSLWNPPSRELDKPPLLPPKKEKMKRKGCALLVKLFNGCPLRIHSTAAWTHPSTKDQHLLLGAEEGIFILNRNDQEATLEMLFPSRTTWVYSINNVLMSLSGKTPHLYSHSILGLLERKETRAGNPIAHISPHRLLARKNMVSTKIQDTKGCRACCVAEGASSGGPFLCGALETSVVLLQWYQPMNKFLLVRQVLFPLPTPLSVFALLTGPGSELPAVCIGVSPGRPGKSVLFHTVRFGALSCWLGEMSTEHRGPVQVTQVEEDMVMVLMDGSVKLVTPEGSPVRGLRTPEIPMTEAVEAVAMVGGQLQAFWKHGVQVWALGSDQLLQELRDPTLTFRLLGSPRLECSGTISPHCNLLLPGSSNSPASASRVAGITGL

| binding [1] | binding (GST-HIP-55 (human)) | binding (Flag-MAP4K1) | Substance |
| --- | --- | --- | --- |
| binds | binds | – | Flag-MAP4K1 (from UniProt Q92918 1-833) (enzyme) |
| – | – | binds | GST-HIP-55 (from UniProt Q9UJU6 1-430) |
